In all, about 310,000 compounds went through this assay and about 14,000 (4.5%) showed an effect of 50% or more. Effects have a minus sign here. This is one part of the list.
The molecules below were run against human ether-à-go-go-related gene (hERG) potassium channel (human, UniProt Q12809) (assay: primary screen, population patch clamp on CHO cells stably expressing hERG).
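Note: peak tail current of the secondary pulse compared with the same well before compound.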

Chain of human ether-à-go-go-related gene (hERG) potassium channel (Q12809 whole entry, looked up): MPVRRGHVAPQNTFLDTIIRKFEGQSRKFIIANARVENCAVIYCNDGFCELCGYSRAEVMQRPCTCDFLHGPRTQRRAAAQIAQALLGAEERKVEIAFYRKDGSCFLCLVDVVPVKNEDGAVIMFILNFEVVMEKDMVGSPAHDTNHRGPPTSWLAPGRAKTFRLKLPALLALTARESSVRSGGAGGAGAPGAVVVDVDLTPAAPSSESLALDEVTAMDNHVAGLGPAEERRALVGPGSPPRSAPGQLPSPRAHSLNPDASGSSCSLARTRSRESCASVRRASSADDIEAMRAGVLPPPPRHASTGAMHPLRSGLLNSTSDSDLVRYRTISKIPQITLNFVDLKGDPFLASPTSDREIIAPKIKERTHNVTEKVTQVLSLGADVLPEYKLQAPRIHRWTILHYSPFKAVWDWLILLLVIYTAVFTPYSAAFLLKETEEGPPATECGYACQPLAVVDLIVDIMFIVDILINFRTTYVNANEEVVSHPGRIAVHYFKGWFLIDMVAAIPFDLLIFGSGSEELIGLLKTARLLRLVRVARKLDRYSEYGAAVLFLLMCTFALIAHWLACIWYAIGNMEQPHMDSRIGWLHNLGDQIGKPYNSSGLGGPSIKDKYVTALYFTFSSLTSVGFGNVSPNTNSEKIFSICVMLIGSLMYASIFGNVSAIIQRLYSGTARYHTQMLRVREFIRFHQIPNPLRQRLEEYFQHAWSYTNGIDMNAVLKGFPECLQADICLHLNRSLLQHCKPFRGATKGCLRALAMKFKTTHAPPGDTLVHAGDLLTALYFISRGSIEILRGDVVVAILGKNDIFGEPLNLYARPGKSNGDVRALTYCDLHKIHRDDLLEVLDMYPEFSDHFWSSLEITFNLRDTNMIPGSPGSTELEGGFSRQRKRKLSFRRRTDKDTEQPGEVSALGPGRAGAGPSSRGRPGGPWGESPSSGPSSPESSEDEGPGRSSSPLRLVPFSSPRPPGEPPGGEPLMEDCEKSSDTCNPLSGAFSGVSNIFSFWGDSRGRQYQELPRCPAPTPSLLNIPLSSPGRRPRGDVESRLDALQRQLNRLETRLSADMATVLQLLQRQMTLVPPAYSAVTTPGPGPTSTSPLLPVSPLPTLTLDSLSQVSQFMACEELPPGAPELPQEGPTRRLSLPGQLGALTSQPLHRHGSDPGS

Structure (SMILES) | hERG current change (%, negative = inhibition) at 10uM
CCOP(=O)(OCC)c1nc(-c2cccc3ccccc23)oc1N1CCOCC1 | -17.8%
N#Cc1cn(-c2ccccc2)nc1-c1ccc2c(c1)OCCO2 | 11.8%
COc1ccc(Cc2nc(-c3ccncc3)no2)cc1 | 2.01%
O=C(CSc1nc2ccccc2s1)NC1CCCC1 | 6.24%
COC(=O)C1=C(C)NC(=O)CC1c1ccccc1F (stereo not shown) | -12.8%
Cc1ccc(C)c(CSc2nnc(-c3cccnc3)n2N)c1 | 29.1%
COC(=O)CSc1nnc(CNC(=O)c2ccc(OC)cc2OC)n1C | -6.24%
CSC1=NSC2=NC(=O)/C(=C\c3ccc(OC(=O)c4ccco4)cc3)C(=N)N12 | 9.54%
CCN1CCc2c(OCc3ccc(C(=O)OC)o3)cccc2C1=O | -11.7%
COc1ccc(-c2cnn(-c3ccccc3)c2N)cc1OC | 1.61%
Cc1ccc(S(=O)(=O)Nc2ncnc3ccccc23)cc1 | 9.77%
Cn1c(O)c(C=NC2CCN(Cc3ccccc3)CC2)c(=O)[nH]c1=O | -26.5%
CNC(=O)CN1C(=O)NC(Cc2c[nH]c3ccccc23)C1=O (stereo not shown) | -5.85%
FC(F)(F)c1cccc(NC(=S)NCc2ccc(Cl)cc2)c1 | 8.76%
Cc1ccc(C(=O)NC(C(=O)OCc2cn3cc(Cl)ccc3n2)C(C)C)cc1 (stereo not shown) | -37.9%
CN1C(=O)/C(=C\c2ccc(Br)s2)C(=O)NC1=S | 15.5%
CC(C)(C)c1nc(SCC(=O)NCc2cccs2)c2ccccc2n1 | -0.222%
COCCCNC(=O)C1CCCN(S(=O)(=O)c2ccc(C)cc2)C1 (stereo not shown) | -12.9%
O=C(CN1C(=O)C(=O)c2ccccc21)NCCc1ccccc1 | 15.7%
CC(=O)c1cccc(S(=O)(=O)N(C)C2CCN(C)CC2)c1.Cl | -2.43%
Br.O=C(Cn1c(NCCCO)nc2ccccc21)c1cccs1 | -11.5%
CC(C)Cc1nnc(NC(=O)c2ccncc2)s1 | -13.2%

Structure (SMILES) | hERG current change (%, negative = inhibition) at 10uM
CCOc1ccc(NC(=O)N2CCC(c3ccc(C)cc3)C2)cc1 (stereo not shown) | 4.48%
CC(=O)N1CN2CN(C(C)=O)CC(C(=O)c3ccc([N+](=O)[O-])cc3)(C2)C1 | -34%
CC1=C(C(=O)OC(C)C)C(c2ccc(C)o2)NC(=O)N1 (stereo not shown) | -6.55%
CCCOc1ccccc1/C=C1/C(=O)ON=C1C | 20.7%
O=[N+]([O-])c1ccc(C2CCCC/C2=N/OCc2ccccc2F)c([N+](=O)[O-])c1 (stereo not shown) | 3.91%
COc1c(Br)cc(Br)cc1C(=O)O | 7.51%
O=C(c1cc(COc2ccc(F)cc2Cl)on1)N1CCN(C2CCCC2)CC1 | -61.4%
CCOC(=O)Nc1nnc(CCc2ccccc2)s1 | -4.48%
COc1ccccc1N1CCN(C(=O)Nc2ccc(F)c(Cl)c2)CC1 | -5.46%
CC(=O)N1c2ccc(S(=O)(=O)NCC3CCC(C(=O)Nc4ncccc4C)CC3)cc2CC1C (stereo not shown) | -5.43%
CN1c2cccc3cccc(c23)N(C)C1c1cccs1 | 3.73%
CC(=O)N1CCN(S(=O)(=O)c2ccc(C)cc2)C1c1ccc(N(C)C)cc1 (stereo not shown) | -10.1%
O=Cc1c(N2CCN(c3ccccc3)CC2)nc2ccccn2c1=O | -22.7%
COc1ccc(S(=O)(=O)N[C@H](C(=O)N2CC[C@@]3(O)CCCC[C@H]3C2)c2ccccc2)cc1 | -16.1%
N#Cc1c(N)nc(SCc2ccccc2)c(C#N)c1-c1ccco1 | -38.1%
COCCCNC(=O)/C(C#N)=C1\N=C(NC(=O)c2cccs2)c2ccccc21 | -6.61%
CCN(CC)C(=O)COC(=O)c1cc(-c2ccc(OC)cc2)nc2ccccc12 | -0.253%
Cc1ccc(OCc2cc(C(=O)N3CCN(C4CCCCC4)CC3)no2)cc1C | -42.5%
COc1ccc(CC(=O)NC(CC(=O)O)c2cccc([N+](=O)[O-])c2)cc1 (stereo not shown) | 17.4%
NNc1nc(Nc2ccc([N+](=O)[O-])cc2)nc(N2CCCCCC2)n1 | 23.7%
Cc1ccc(C)c(Oc2nnnn2-c2ccccc2)c1 | -5.89%
COc1ccc(S(=O)(=O)N2CCN(C(=O)c3cccs3)CC2)cc1 | -32.4%

Structure (SMILES) | hERG current change (%, negative = inhibition) at 10uM
CC1=C(C(N)=O)C(c2cccs2)n2ncnc2N1 (stereo not shown) | 4.49%
O=C(CSCc1ccccc1Br)N/N=C/c1ccccc1C(=O)O | 24.3%
O=C1[C@H]2[C@@H](c3ccc(F)cc3)N3C(=O)N(c4cccc(Cl)c4)C(=O)[C@@]3(Cc3ccccc3)[C@H]2C(=O)N1C1CCCCC1 | 5.3%
O=C(Nc1ccccc1F)C1CCCN(S(=O)(=O)c2ccc(-n3cnnn3)cc2)C1 (stereo not shown) | 13.7%
CC(=O)/C(N=Nc1ccc(-n2ccc(C(F)(F)F)n2)cc1)=C(\C)O | 2.31%
O=C(Nc1ccccc1C(=O)Nc1nnc(C(F)(F)F)s1)c1ccccc1 | 28.4%
O=C(Oc1ccccc1Cl)C1CCN(C(=O)c2ccc(F)cc2)CC1 | -16.3%
Cc1ccsc1C(=O)Nc1cccc(-n2cnnn2)c1 | -8.26%
COc1ccc(CCNC(=O)C2CC(=O)N(CCc3ccccc3)C2)cc1OC (stereo not shown) | 6.16%
Cc1ccc(CN2CCC(=O)N2)cc1 | 19.9%
O=C(COC(=O)/C=C/c1cccc(Cl)c1)NC1CCCC1 | 13%
Cc1c([N+](=O)[O-])cc(C(=O)N2CCOCC2)cc1[N+](=O)[O-] | 0.522%
Fc1ccc(Nc2nc(-c3ccncc3)nc3ccccc23)cc1F | 4.83%
O=C(NCCN1CCCC1)C1CC(=O)N(C2CCCCC2)C1 (stereo not shown) | 14.1%
O=C(O)c1ccccc1SCC(=O)N1CCc2ccccc21 | 13.4%
Cc1cccc(NC(=O)CN2C(=O)N/C(=C/c3ccc(C)o3)C2=O)c1 | 10.1%
C=CCNc1nc(C(=O)OCC(=O)c2ccc(F)cc2)cs1 | -4.15%
O=[N+]([O-])CC1(n2nc3ccccc3n2)CCCCC1 | 0.687%
CC(=O)N(CCS(=O)(=O)c1ccc(Cl)cc1)Cc1cccs1 | -0.348%
CCOc1ccc(N2CC(C(=O)Nc3ncccc3C)CC2=O)cc1 (stereo not shown) | -8.66%
Cc1ccc(S(=O)(=O)N(C)C2(C)CCS(=O)(=O)C2)cc1 (stereo not shown) | -4.03%
Cc1cc(Nc2cccc(C)c2C)n2nc(C)nc2n1 | -11.9%

Structure (SMILES) | hERG current change (%, negative = inhibition) at 10uM
CC(NC(=O)CCCCCCN1C(=O)c2ccccc2C1=O)c1ccc2c(c1)CCCC2 (stereo not shown) | -3.24%
Cc1ccc(NS(=O)(=O)c2ccc(C)c(C(=O)N3CCOCC3)c2)cc1 | 5.4%
CC(=O)OCc1ccccc1Sc1ccccc1C(=O)NCc1ccccc1 | -20.5%
CC(C)CN1CCC(C(=O)NCC2CCCO2)CC1.O=C(O)C(=O)O (stereo not shown) | -3.21%
CCOC(=O)C1CCCN(c2c(NCCCN(CC)c3cccc(C)c3)c(=O)c2=O)C1 (stereo not shown) | -32.7%
c1ccc2c(c1)nc(N1CCOCC1)c1nncn12 | -5.44%
CSCCC(Nc1ccc(S(=O)(=O)N2CCOCC2)cc1[N+](=O)[O-])C(=O)OCC(=O)N(C(C)C)C(C)C (stereo not shown) | -23.6%
Cc1ccc2nc(-c3ccc(NC(=S)NC(=O)CC(C)C)cc3)sc2c1 | 2.02%
O=C(CN1C(=O)C2C3C=CC(C3)C2C1=O)OCC(=O)c1ccc([N+](=O)[O-])cc1 (stereo not shown) | 18%
CN(C)C(=O)OCc1c(-c2ccccc2)ncc2ccccc12 | -6.88%
CCOc1cc(C)c(S(=O)(=O)Nc2ccc3cn[nH]c3c2)cc1C | 25.2%
O=C(c1ccc(Br)o1)N1CCN(Cc2ccc3c(c2)OCO3)CC1 | -33.7%
CC(=O)c1ccc(N2CCN(c3ccc(S(=O)(=O)NCCN(C)C)cc3[N+](=O)[O-])CC2)cc1 | -23.2%
CN(C)S(=O)(=O)c1ccc(C(=O)Nc2nnc(Cc3ccccc3)s2)cc1 | 4.59%
CCC(Sc1nc(=O)cc(N)n1-c1cccc(C)c1)C(=O)Nc1cc(C)on1 (stereo not shown) | 6.89%
CCc1nc(NCC2CCCO2)c(C#N)c2c1COC(C)(C)C2 (stereo not shown) | -7.98%
COC(=O)c1c(NC(C)=O)sc(Cc2ccccc2)c1C | 7.36%
O=C(c1cccs1)N1CCN(C/C=C/c2ccccc2)CC1 | -41.7%
CCCc1cc(=O)oc2cc(OCC(=O)N3CCN(Cc4ccc5c(c4)OCO5)CC3)ccc12 | -57%
CC(C)OC(=O)CCCCCN1C(=O)CSC1=S | -7.33%
NC(=O)c1nsc(C(=O)N(c2cccc(F)c2)C(C(=O)NCc2ccccc2)c2ccc(O)cc2)c1N (stereo not shown) | -22.4%
O=C(C1CCCN(S(=O)(=O)c2ccc([N+](=O)[O-])cc2)C1)N1CCCCC1 (stereo not shown) | -62%

Reference: PMC4336329 (PLoS ONE, 2015)
